Assay results published in the supplement of paper PMC8728848.
The list shows a part of the results.

Legend:
Test in all cases: glycan array binding signal (z-score within array); higher = stronger binding
Conditions in all cases: glycan notation: IUPAC condensed, linker removed
Gal(b1-3)GlcNAc6S = target: Gal(b1-3)GlcNAc6S
Method in brief: (§1)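 From the Consortium for Functional Glycomics database, 3228 arrays were curated, keeping only those whose protein sequence was available. Binding is given as a within-array Z-score averaged across arrays sharing a protein sequence and across linkers. Negative Z-scores can be read as non-binding.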

[1] = target: Gal(b1-3)[Fuc(a1-4)]GlcNAc
Method in brief: as §1

[2] = target: Gal(b1-3)[Fuc(a1-4)]GlcNAc(b1-2)Man(a1-3)[Gal(b1-3)[Fuc(a1-4)]GlcNAc(b1-2)Man(a1-6)]Man(b1-4)GlcNAc(b1-4)[Fuc(a1-6)]GlcNAc
Method in brief: as §1

[3] = target: Gal(b1-3)[Fuc(a1-4)]GlcNAc(b1-3)Gal(b1-3)[Fuc(a1-4)]GlcNAc
Method in brief: as §1

[4] = target: Gal(b1-3)[Fuc(a1-4)]GlcNAc(b1-3)Gal(b1-4)GlcNAc
Method in brief: as §1

[5] = target: Gal(b1-3)[Fuc(a1-4)]GlcNAc(b1-3)Gal(b1-4)[Fuc(a1-3)]GlcNAc
Method in brief: as §1

[6] = target: Gal(b1-3)[Fuc(a1-4)]GlcNAc(b1-6)GalNAc
Method in brief: as §1

[7] = target: Gal(b1-3)[GlcNAc(b1-6)]GalNAc
Method in brief: as §1

[8] = target: Gal(b1-3)[Neu5Ac(a2-6)]GalNAc
Method in brief: as §1

[9] = target: Gal(b1-3)[Neu5Ac(a2-6)]GlcNAc(b1-6)Gal(b1-4)Glc
Method in brief: as §1

[10] = target: Gal(b1-3)[Neu5Ac(b2-6)]GalNAc
Method in brief: as §1

Gal(b1-4)Gal = target: Gal(b1-4)Gal
Method in brief: as §1

[11] = target: Gal(b1-4)GalNAc(a1-3)[Fuc(a1-2)]Gal(b1-4)GlcNAc
Method in brief: as §1

[12] = target: Gal(b1-4)GalNAc(b1-3)[Fuc(a1-2)]Gal(b1-4)GlcNAc
Method in brief: as §1

Gal(b1-4)Glc = target: Gal(b1-4)Glc
Method in brief: as §1

Gal(b1-4)Glc6S = target: Gal(b1-4)Glc6S
Method in brief: as §1

Gal(b1-4)GlcNAc = target: Gal(b1-4)GlcNAc
Method in brief: as §1

[13] = target: Gal(b1-4)GlcNAc(a1-6)Gal(b1-4)GlcNAc
Method in brief: as §1

Gal(b1-4)GlcNAc(b1-2)Man = target: Gal(b1-4)GlcNAc(b1-2)Man
Method in brief: as §1

[14] = target: Gal(b1-4)GlcNAc(b1-2)Man(a1-3)Man(b1-4)GlcNAc(b1-4)GlcNAc
Method in brief: as §1

[15] = target: Gal(b1-4)GlcNAc(b1-2)Man(a1-3)[Gal(b1-4)GlcNAc(b1-2)Man(a1-6)]Man(b1-4)GlcNAc(b1-4)GlcNAc
Method in brief: as §1

[16] = target: Gal(b1-4)GlcNAc(b1-2)Man(a1-3)[Gal(b1-4)GlcNAc(b1-2)Man(a1-6)]Man(b1-4)GlcNAc(b1-4)[Fuc(a1-6)]GlcNAc
Method in brief: as §1

[17] = target: Gal(b1-4)GlcNAc(b1-2)Man(a1-3)[Gal(b1-4)GlcNAc(b1-2)][GlcNAc(b1-4)]Man(b1-4)GlcNAc(b1-4)GlcNAc
Method in brief: as §1

[18] = target: Gal(b1-4)GlcNAc(b1-2)Man(a1-3)[GlcNAc(b1-2)Man(a1-6)]Man(b1-4)GlcNAc(b1-4)GlcNAc
Method in brief: as §1

[19] = target: Gal(b1-4)GlcNAc(b1-2)Man(a1-3)[Man(a1-6)]Man(b1-4)GlcNAc(b1-4)GlcNAc
Method in brief: as §1

[20] = target: Gal(b1-4)GlcNAc(b1-2)Man(a1-6)Man(b1-4)GlcNAc(b1-4)GlcNAc
Method in brief: as §1

[21] = target: Gal(b1-4)GlcNAc(b1-2)Man(a1-6)[GlcNAc(b1-2)Man(a1-3)]Man(b1-4)GlcNAc(b1-4)GlcNAc
Method in brief: as §1

[22] = target: Gal(b1-4)GlcNAc(b1-2)Man(a1-6)[Man(a1-3)]Man(b1-4)GlcNAc(b1-4)GlcNAc
Method in brief: as §1

[23] = target: Gal(b1-4)GlcNAc(b1-2)[Gal(b1-4)GlcNAc(b1-4)]Man(a1-3)[Gal(b1-4)GlcNAc(b1-2)Man(a1-6)]Man(b1-4)GlcNAc(b1-4)GlcNAc
Method in brief: as §1

[24] = target: Gal(b1-4)GlcNAc(b1-2)[Gal(b1-4)GlcNAc(b1-4)]Man(a1-3)[Gal(b1-4)GlcNAc(b1-2)[Gal(b1-4)GlcNAc(b1-6)]Man(a1-6)]Man(b1-4)GlcNAc(b1-4)GlcNAc
Method in brief: as §1

B1: PRKCE (Homo sapiens), Q02156 (protein)
chain: MVVFNGLLKIKICEAVSLKPTAWSLRHAVGPRPQTFLLDPYIALNVDDSRIGQTATKQKTNSPAWHDEFVTDVCNGRKIELAVFHDAPIGYDDFVANCTIQFEELLQNGSRHFEDWIDLEPEGRVYVIIDLSGSSGEAPKDNEERVFRERMRPRKRQGAVRRRVHQVNGHKFMATYLRQPTYCSHCRDFIWGVIGKQGYQCQVCTCVVHKRCHELIITKCAGLKKQETPDQVGSQRFSVNMPHKFGIHNYKVPTFCDHCGSLLWGLLRQGLQCKVCKMNVHRRCETNVAPNCGVDARGIAKVLADLGVTPDKITNSGQRRKKLIAGAESPQPASGSSPSEEDRSKSAPTSPCDQEIKELENNIRKALSFDNRGEEHRAASSPDGQLMSPGENGEVRQGQAKRLGLDEFNFIKVLGKGSFGKVMLAELKGKDEVYAVKVLKKDVILQDDDVDCTMTEKRILALARKHPYLTQLYCCFQTKDRLFFVMEYVNGGDLMFQIQRSRKFDEPRSRFYAAEVTSALMFLHQHGVIYRDLKLDNILLDAEGHCKLADFGMCKEGILNGVTTTTFCGTPDYIAPEILQELEYGPSVDWWALGVLMYEMMAGQPPFEADNEDDLFESILHDDVLYPVWLSKEAVSILKAFMTKNPHKRLGCVASQNGEDAIKQHPFFKEIDWVLLEQKKIKPPFKPRIKTKRDVNNFDQDFTREEPVLTLVDEAIVKQINQEEFKGFSYFGEDLMP
glycan array binding signal (z-score) (Gal(b1-3)GlcNAc6S): -0.044 | glycan array binding signal (z-score) [1]: -0.387 | glycan array binding signal (z-score) [2]: 0.082 | glycan array binding signal (z-score) [3]: -0.381 | glycan array binding signal (z-score) [4]: -0.375 | glycan array binding signal (z-score) [5]: -0.26 | glycan array binding signal (z-score) [6]: 0.102 | glycan array binding signal (z-score) [7]: 0.429 | glycan array binding signal (z-score) [8]: -0.319 | glycan array binding signal (z-score) [9]: -0.065 | glycan array binding signal (z-score) [10]: -0.23 | glycan array binding signal (z-score) (Gal(b1-4)Gal): 0.005 | glycan array binding signal (z-score) [11]: -0.242 | glycan array binding signal (z-score) [12]: 0.061 | glycan array binding signal (z-score) (Gal(b1-4)Glc): -0.241 | glycan array binding signal (z-score) (Gal(b1-4)Glc6S): 0.831 | glycan array binding signal (z-score) (Gal(b1-4)GlcNAc): -0.411 | glycan array binding signal (z-score) [13]: -0.379 | glycan array binding signal (z-score) (Gal(b1-4)GlcNAc(b1-2)Man): -0.353 | glycan array binding signal (z-score) [14]: 0.471 | glycan array binding signal (z-score) [15]: 0.614 | glycan array binding signal (z-score) [16]: -0.398 | glycan array binding signal (z-score) [17]: -0.146 | glycan array binding signal (z-score) [18]: 2.61 | glycan array binding signal (z-score) [19]: 0.265 | glycan array binding signal (z-score) [20]: -0.31 | glycan array binding signal (z-score) [21]: 1.3 | glycan array binding signal (z-score) [22]: 0.074 | glycan array binding signal (z-score) [23]: -0.066 | glycan array binding signal (z-score) [24]: -0.392
